Assay results as given in the antibiotic and cytotoxicity screens of Wong et al. (2023).
The other results are listed elsewhere or left out.

Each compound was assayed on HSkMC (human skeletal muscle cells) (assay: cytotoxicity call (relative viability < 0.9)). Conditions: 10 µM.

Structure (SMILES)	cytotoxicity call
Cc1ccc(S(=O)(=O)Nc2ccc3c(c2)CC(=O)N([C@@H](C)CO)C[C@H](C)[C@@H](CN(C)S(=O)(=O)c2ccccc2)O3)cc1	inactive
Cn1c(=O)c2c(nc(N3CCNCC3)n2CC(=O)c2ccc(Cl)cc2)n(C)c1=O	inactive
CCC(=O)N(C)C[C@@H]1Oc2ncc(C#C[C@H](C)O)cc2C(=O)N([C@@H](C)CO)C[C@H]1C	inactive
O=C1c2c(O[C@@H]3O[C@H](CO)[C@@H](O)[C@H](O)[C@H]3O)cc(O)cc2O[C@@]1(O)Cc1ccc(O)cc1	inactive
O=C(C[C@H]1C[C@H]2c3cc(NS(=O)(=O)c4ccc(F)cc4)ccc3O[C@H]2[C@H](CO)O1)NCc1cccnc1	inactive
C[C@@H]1CN([C@H](C)CO)S(=O)(=O)c2ccc(C#CCN(C)C)cc2O[C@H]1CN(C)Cc1ccccc1F	inactive
N#Cc1ccc(N2CCCNCC2)nc1	inactive
COc1ccc(NC(=O)N(C)C[C@@H]2OCCCC[C@@H](C)Oc3ccc(NC(=O)Nc4ccc(C(F)(F)F)cc4)cc3C(=O)N([C@@H](C)CO)C[C@H]2C)cc1	inactive
CCS(=O)(=O)Nc1ccc2c(c1)C(=O)N(C)C[C@H](OC)[C@@H](C)CN(C(=O)c1ccc3c(c1)OCO3)[C@H](C)CO2	inactive
COc1ccc(S(=O)(=O)N(C)C[C@@H]2Oc3ccc(NS(=O)(=O)c4cn(C)cn4)cc3CC(=O)N([C@@H](C)CO)C[C@H]2C)cc1	inactive
O=C(C[C@@H]1C[C@H]2c3cc(NS(=O)(=O)c4ccccc4)ccc3O[C@H]2[C@H](CO)O1)NC1CCCCC1	inactive
Cc1noc(C)c1S(=O)(=O)N(C)C[C@@H]1Oc2ccc(NC(=O)CCC(F)(F)F)cc2CC(=O)N([C@@H](C)CO)C[C@@H]1C	inactive
C[C@H](CO)N1C[C@H](C)[C@@H](CN(C)C(=O)NC2CCCCC2)Oc2c(NS(C)(=O)=O)cccc2C1=O	inactive
COCC(=O)N(C)C[C@H]1Oc2cc(C#CCN(C)C)ccc2S(=O)(=O)N([C@@H](C)CO)C[C@H]1C	inactive
C[C@@H]1CCCCO[C@H](CN(C)Cc2ccncc2)[C@H](C)CN([C@H](C)CO)C(=O)c2cc(NC(=O)Nc3ccc4c(c3)OCO4)ccc2O1	inactive
C[C@@H]1CN([C@H](C)CO)C(=O)c2cccc(NC(=O)Nc3cccc4ccccc34)c2O[C@@H]1CN(C)C(=O)Nc1ccc(C(F)(F)F)cc1	active
COc1ccc(COC[C@@]23Oc4ccccc4[C@@H](NC(=S)N2C)[C@H]3CO[Si](C)(C)C(C)(C)C)cc1	inactive
C[C@@H]1CN([C@@H](C)CO)C(=O)c2cc(NC(=O)CCN3CCOCC3)ccc2O[C@@H]1CN(C)S(=O)(=O)c1cccs1	inactive
C[C@@H]1CCCCO[C@H](CN(C)Cc2ccc(C(=O)Nc3ccccc3N)cc2)[C@@H](C)CN([C@H](C)CO)C(=O)c2cc(NS(=O)(=O)c3ccccc3)ccc2O1	inactive
CCc1ccc(NC(=O)C2CCN(S(=O)(=O)c3c(C)[nH]c(=O)[nH]c3=O)CC2)cc1	inactive
C[C@@H]1CN([C@H](C)CO)C(=O)c2ccccc2-c2ccccc2CO[C@H]1CN(C)C(=O)Nc1ccc(-c2ccccc2)cc1	inactive
C[C@H](CO)N1C[C@H](C)[C@H](CN(C)Cc2ccc(-c3ccccc3)cc2)Oc2ccc(NS(=O)(=O)c3ccc(Cl)cc3)cc2CC1=O	inactive
COc1ccc(CN(C)C[C@@H]2OCCCC[C@H](C)Oc3ccc(NS(=O)(=O)c4ccc(F)cc4)cc3C(=O)N([C@H](C)CO)C[C@@H]2C)cc1	inactive
CO[C@H]1CN(C)C(=O)c2ccc(NC(=O)C3CC3)cc2OC[C@H](C)N(C(=O)Cc2ccccn2)C[C@H]1C	inactive
OC[C@@H]1CC[C@@H]2O[C@H](CCc3ccc(C#Cc4ccccc4)cc3)[C@H](n3cc(-c4ccccc4)nn3)C[C@@H]2O1	active
Cc1ccc(S(=O)(=O)Nc2ccc3c(c2)C(=O)N([C@@H](C)CO)C[C@H](C)[C@H](CN(C)C(=O)Nc2ccccc2)OCCCC[C@@H](C)O3)cc1	inactive
O=C(CCNc1n[nH]c(=O)[nH]c1=O)NCc1ccco1	inactive
CNC[C@@H]1Oc2ccc(NS(=O)(=O)c3cn(C)cn3)cc2C(=O)N([C@H](C)CO)C[C@@H]1C	inactive
Cl.N#Cc1ccc2[nH]cc(CCCCN3CCN(c4ccc5oc(C(N)=O)cc5c4)CC3)c2c1	inactive
COCC(=O)Nc1ccc2c(c1)C(=O)N(C)C[C@@H](OC)[C@H](C)CN(C(=O)c1ccccc1F)[C@@H](C)CO2	inactive
